Data as given in a collection of fitness landscapes (doi:10.1016/j.celrep.2020.107928).
Whole data set: some 81,000 sequences, median “one-hybrid fitness for binding NBS DNA” near -0.1, cut for the highest 2% near 0.36. The list shows a part of the results.

B1: Caulobacter ParB omega fusion; a variant is named by its letters at X, in order, B8GW30 (parent)
chain: MESVVVGEPGMSEGRRGLGRGLSALLGEVDAAPAQAPGEQLGGSREAPIEILQRNPDQPRRTFREEDLEDLSNSIREKGVLQPILVRPSPDTAGEYQIVAGERAWRAAQRAGLKTVPIMVRELDDLAVLEIGIIENVQRADLNVLEEALSYKVLMEKFERTQENIAQTIGKSXSHVANXMRLLXLPDEVQSYLVSGELTAXHARAIAAAADPVALAKQIIEGGLSVRETEALARKAPNLSAGKSKGGRPPRVKDTDTQALESDLSSVLGLDVSIDHRGSTGTLTITYATLEQLDDLCNRLTRGI

Variants of: B1
Assay: one-hybrid fitness for binding NBS DNA (the Noc-binding site; scaled: cognate 1, non-cognate 0); higher = stronger binding
Settings: with NBS DNA site
Summary of the method: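 In E. coli USO, a HIS3 reporter with its site placed 19 bp from the promoter was used to select Caulobacter ParB variants randomised at four specificity codons. Growth lasted 48 hours at 37°C on histidine-free M9 containing 0.1 mM IPTG and 5 mM 3-AT. Fitness was taken as the log change in variant-to-wild-type read ratio from Illumina sequencing of pre- and post-selection plasmids, rescaled between the non-cognate and cognate sites.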

| Variant | one-hybrid fitness for binding NBS DNA |
| --- | --- |
| QLHR | 0.519 |
| ATEP | ≤ 0.2 |
| FRQG | ≤ 0.2 |
| QAFH | ≤ 0.2 |
| SHDM | ≤ 0.2 |
| VMLC | ≤ 0.2 |
| QGNF | ≤ 0.2 |
| PDST | ≤ 0.2 |
| AKIR | ≤ 0.2 |
| YCDR | ≤ 0.2 |
| CRTF | ≤ 0.2 |
| SVHI | ≤ 0.2 |
| QYIS | 0.202 |
| WYLC | ≤ 0.2 |
| DTLT | ≤ 0.2 |
| YPTN | ≤ 0.2 |
| SINF | ≤ 0.2 |
| DNPR | ≤ 0.2 |
| VEPC | ≤ 0.2 |
| WCQR | ≤ 0.2 |
| RGCL | ≤ 0.2 |
| YMIG | ≤ 0.2 |
| TPTH | ≤ 0.2 |
| PFHT | ≤ 0.2 |
| KKVH | ≤ 0.2 |
| RSAH | ≤ 0.2 |

| Variant | one-hybrid fitness for binding NBS DNA |
| --- | --- |
| QHWR | 0.363 |
| TPGF | ≤ 0.2 |
| NDTG | ≤ 0.2 |
| LPEG | ≤ 0.2 |
| WMHR | ≤ 0.2 |
| PYMD | ≤ 0.2 |
| HSHA | ≤ 0.2 |
| PDML | ≤ 0.2 |
| CAHN | ≤ 0.2 |
| ELSG | ≤ 0.2 |
| KNNM | ≤ 0.2 |
| QNAD | ≤ 0.2 |
| CYIS | ≤ 0.2 |
| MIRK | ≤ 0.2 |
| CSAK | ≤ 0.2 |
| HYTE | ≤ 0.2 |
| QAPK | ≤ 0.2 |
| DDHV | ≤ 0.2 |
| KLKR | 0.319 |
| LTGD | ≤ 0.2 |
| MPMG | ≤ 0.2 |
| KYQG | ≤ 0.2 |
| STLT | ≤ 0.2 |
| TTIK | ≤ 0.2 |
| SQQG | ≤ 0.2 |
| SFSA | ≤ 0.2 |

| Variant | one-hybrid fitness for binding NBS DNA |
| --- | --- |
| NMSR | ≤ 0.2 |
| MTAN | ≤ 0.2 |
| RIYY | ≤ 0.2 |
| HGST | ≤ 0.2 |
| QQQG | ≤ 0.2 |
| MPKY | ≤ 0.2 |
| PNLY | ≤ 0.2 |
| ANVT | ≤ 0.2 |
| PEYI | ≤ 0.2 |
| QWTI | ≤ 0.2 |
| MLLV | ≤ 0.2 |
| EQSN | ≤ 0.2 |
| NKIC | ≤ 0.2 |
| RGRF | ≤ 0.2 |
| DKAK | ≤ 0.2 |
| MEVR | ≤ 0.2 |
| QMCM | ≤ 0.2 |
| PERC | ≤ 0.2 |
| QPSW | ≤ 0.2 |
| HEES | ≤ 0.2 |
| LWVP | ≤ 0.2 |
| NTHH | ≤ 0.2 |
| QCAV | ≤ 0.2 |
| SPKK | ≤ 0.2 |
| DHGS | ≤ 0.2 |
